T1: UNK ZnF1-6 (called full-length) (human, UniProt Q9C0B0 30-357)
T1 sequence: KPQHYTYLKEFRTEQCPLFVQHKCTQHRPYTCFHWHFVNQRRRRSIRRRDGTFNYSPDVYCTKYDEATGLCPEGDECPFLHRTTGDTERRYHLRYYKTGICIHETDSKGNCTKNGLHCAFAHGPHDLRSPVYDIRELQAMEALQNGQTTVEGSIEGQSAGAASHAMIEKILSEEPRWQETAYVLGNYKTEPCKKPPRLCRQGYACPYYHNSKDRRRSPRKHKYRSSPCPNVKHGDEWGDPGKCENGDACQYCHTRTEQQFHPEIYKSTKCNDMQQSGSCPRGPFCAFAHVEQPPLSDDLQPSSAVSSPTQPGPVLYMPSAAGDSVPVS

B1: ENSG00000198589:be:win_2751|CDS|ENSG00000198589|bound_else_gene|NA|bound_elsewhere_windowed (ssRNA)
RNA: GGGAGUUCUACAGUCCGACGAUCAAUCACUCAUUCAAAGGUCACUUUUGAAAUACACAAAGAAAACCUUGCCAAUAUAUUUAGGGAACAGCAAGGAAAAGUUGAUGAAGAAAUAGGGCUGUGUUCUUCAACUUCAGUUCAAGCCAACAGAGGAUUGAGCAUCA
B2: chr4:78448087:78448188:+|CDS|ENSG00000138759|msi1|total|mutant (ssRNA)
RNA: GGGAGUUCUACAGUCCGACGAUCGCCUCUGGAGAAUGGGAGAGUUUCCGUCCAGGGCUCAACCUUCACCUACCAGGAUAUCCCCGCUGGGCUGGUUGGGUAUGUGCCCCGUGUCCCUGGCAUGGUCGUGGAUGAGUUCCAGUUCAACAGAGGAUUGAGCAUCA
B3: chr2:96252317:96252350:-|3pUTR|ENSG00000135956|msi1_unk|FALSE|overlapping (ssRNA)
RNA: GGGAGUUCUACAGUCCGACGAUCGUGUCCCCUGCUGAGCUGAAAAGGAAAUGGAUUCCAAUCUCUUCCAACCUUUAAGGUGAUAGAUAGUUUGAGCAAGACUGGAGAAUGGACAACACUAUGAAGCUGUGGCUAGAAAGGGACCAACAGAGGAUUGAGCAUCA
B4: chr12:30629720:30629821:-|3pUTR|ENSG00000133704|msi1|total|mutant (ssRNA)
RNA: GGGAGUUCUACAGUCCGACGAUCCUUCUUGCUUUCUCACCUAUUUGAAUUUUCUCCUACCUAAUUUGUUUGUGUCUUUAUUACCGCUCAGUUUGACUUCUCAAACUUUUCAAGGGUUGGGGCAGCUGCACUUUCCGGUUGCCUCAACAGAGGAUUGAGCAUCA
B5: chr12:109554177:109554278:-|3pUTR|ENSG00000139428|unk|total|mutant (ssRNA)
RNA: GGGAGUUCUACAGUCCGACGAUCUUGCUAUGUGCAGUGCCCUGAGCCAAGUGUUCCACAGACAUUAUCUCAUUUGAACCCCACCGCAGCCCUGGAAGGAGGCAUUGGGUGGGGAACCAAGUUGUCCUGGGGAGUCAGUGCCAACAACAGAGGAUUGAGCAUCA
B6: chr2:130462818:130464144:-|CDS|ENSG00000196834|control|control|control (ssRNA)
RNA: GGGAGUUCUACAGUCCGACGAUCACCACCAUGUACCCUGGCAUGGCCCACAGAAUGCAGAAGGAGAUCGCUGCCCUGGCGCCUAGCAUGUUGAAGAUCAGGAUCAUUGCUCCUCCCAAGCGCAAGUACUCCGUGUGGGUCGGUCAACAGAGGAUUGAGCAUCA
B7: chr6:132328510:132328611:-|CDS|ENSG00000079931|msi1|FALSE|unique (ssRNA)
RNA: GGGAGUUCUACAGUCCGACGAUCUUGUGGGAUGUUGUAGGGUGGUCUUAUUUAUUGUGUCCUCCCUCUCAUUUAUGUUCGUGUAGGUUGAGCCAGUGAUACAGAGAGGCCAUGAGAGUCUGGUGCACCACAUCCUGCUCUAUCCAACAGAGGAUUGAGCAUCA
B8: ENSG00000198589:be:win_8151|CDS|ENSG00000198589|bound_else_gene|NA|bound_elsewhere_windowed (ssRNA)
RNA: GGGAGUUCUACAGUCCGACGAUCAGACUUGUUGAGGACCUUGGAGGGUCCUGAAAACUGCCUGAAACCAAAACUCAUUCAGGCUUCAAGAGAGGGUCAUUGUGUCAUAUUCUAUGAAAACGGCCUCUUCUGUACAUUCAGUGUCAACAGAGGAUUGAGCAUCA
B9: chr10:119167843:119167906:-|3pUTR|ENSG00000165672|msi1_unk|total|mutant (ssRNA)
RNA: GGGAGUUCUACAGUCCGACGAUCUGCAUGAUCCCUCAUCCCUGAAAUUGAGUUUAUGCCGUCAUUUUACUUAUUUUAUUCAUCCGCUAACUUUGUCUAUGUAUAUUUCCCGAUAUUGAUCCGUGUAAUCGAUUAUAAAGGAUACAACAGAGGAUUGAGCAUCA
B10: chr9:125307754:125307855:+|CDS|ENSG00000165219|unk|FALSE|unique (ssRNA)
RNA: GGGAGUUCUACAGUCCGACGAUCGGCUCUUGACAAUUUAUUGGCAAACCUACCCCCGGCCAAGCCAGGAAAAAGUAGCAGUUUAGAAAUGACUCCCUACAAUACACCUCAGCUAUCUCCAGCAACCACUCCAGCAAAUAAAAACAACAGAGGAUUGAGCAUCA
B11: ENSG00000136451:be:win_2601|3pUTR|ENSG00000136451|bound_else_gene|NA|bound_elsewhere_windowed (ssRNA)
RNA: GGGAGUUCUACAGUCCGACGAUCCACUAACUAGGUAGUGUAUGCCCCUUCAGAACAUGCAGAGUGUAUCUUUUUUUAAAUUUCUCCUUCCGUUUCUUAAGUAUUGCGCAGAUUUGUUCAACUUUGUAAAUAUGGACAUCACUUCAACAGAGGAUUGAGCAUCA
B12: chr1:209614869:209615270:-|three_prime_utr|ENSG00000196878|control|control|control (ssRNA)
RNA: GGGAGUUCUACAGUCCGACGAUCUUCCAUCUCCAGGAGACUUUCAUGCAGCCUAAAGUACAGCCUGGACCACCCCUGGUGUGUAGCUAGUAAGAUUACCCUGAGCUGCAGCUGAGCCUGAGCCAAUGGGACAGUUACACUUGACAACAGAGGAUUGAGCAUCA
B13: ENSG00000090857:stop:overlap|stop_codon|ENSG00000090857|stop_codon|NA|stop_codon (ssRNA)
RNA: GGGAGUUCUACAGUCCGACGAUCGGUGGAUGGAGAAACAUGGAUUUGAGAGGCCAAAGUACUUUGUUCCCCCCGACAAGGGCUAGAAUGUGUUCACAGAAGAAAAAGAACCACGUGGACUACACUAAACUCUACAGGGCCUUGCAACAGAGGAUUGAGCAUCA
B14: chr6:7881277:7881391:+|3pUTR|ENSG00000153162|unk|total|mutant (ssRNA)
RNA: GGGAGUUCUACAGUCCGACGAUCGCUGUUUAUGAACGGAAAUCAUGAUUUCCCUUGCCGAAAGUGAGGCUCAGAUUAAAUUUCCGAAUAUUUUCUAAAUGUCUUUUUCACAAUCAUGUACUGGGAAGGCAAUUUCAUACUAAACAACAGAGGAUUGAGCAUCA
B15: chr3:170465896:170466000:-|3pUTR|ENSG00000013293|unk|total|mutant (ssRNA)
RNA: GGGAGUUCUACAGUCCGACGAUCACUCCGGCCGUUGCAUUCCAUGAGAUCACAUUUCACUUCUGAACCUUAUUCCUUGGGGCCCGCUCACUUUCAGAGGUGUAUUUUUUUUUCCUGUUAUUUCCCAGAGCCGUUUCACUGAAGCAACAGAGGAUUGAGCAUCA
B16: chr7:5977587:5977790:-|CDS|ENSG00000122512|control|control|control (ssRNA)
RNA: GGGAGUUCUACAGUCCGACGAUCCAAAAUUGUAUUCUUUUAGCUCCAGUCACUGAAAGGGCUAAACUGAUUUCCUUGCCAACUAGUAAAAACUGGACCUUCGGACCCCAGGACGUCGAUGAACUGAUCUUCAUGCUGAGCGACCAACAGAGGAUUGAGCAUCA
B17: chr3:23954599:23954720:+|CDS|ENSG00000174738|unk|total|mutant (ssRNA)
RNA: GGGAGUUCUACAGUCCGACGAUCAGUGAGGGUUCUGAGAACCGUUUCCAGUCCUCCUCCUCUUCUGUUCCAUCUUCUCCAAACCGCUCUAAUUCUGAUACCAAUGGUAAUCCCAAGAAUGGUGAUCUCGCCAAUAUUGAAGGCCAACAGAGGAUUGAGCAUCA
B18: chr19:10690846:10690947:+|3pUTR|ENSG00000129351|msi1|FALSE|bound_elsewhere (ssRNA)
RNA: GGGAGUUCUACAGUCCGACGAUCGAAAGAGGUGAAAGAACAAGUUGUGUGCUAGAAAACUUUUGAGGAAUUCUUAUUUGUGUUAGAGCAGAGGAGGUCCCAGAUACCAAGUGGCGCCUCCCAGGAAAGGCUGGGAGAAGAGGUCAACAGAGGAUUGAGCAUCA
B19: chr11:35726083:35726184:+|CDS|ENSG00000166326|msi1|total|mutant (ssRNA)
RNA: GGGAGUUCUACAGUCCGACGAUCGAGGCAAUGGCCACAGCUCAUGUGACUGAGAUACUGGCAGACAUCCAAUCCCACAUGGACCGGUUGAUGACUCAGAUGGCCCAAGCCAAGGAACAACUUGAUACCUCUAAUGAAUCAGCUCAACAGAGGAUUGAGCAUCA
B20: chr9:124878635:124878736:-|3pUTR|ENSG00000136935|msi1|FALSE|unique (ssRNA)
RNA: GGGAGUUCUACAGUCCGACGAUCCCAGCCAUUGAACUGGUCCCACACGCACCCCAGGCCCCACUCCUCGGCAGUUUCAGGUGUAGCUGUGGGGCCCGUUCCUAGGUCUGUACUCACUUUAGGGAGGCUUCACUGACUAGGCUUCAACAGAGGAUUGAGCAUCA
B21: chr1:32075697:32075801:+|CDS|ENSG00000121775|unk|total|mutant (ssRNA)
RNA: GGGAGUUCUACAGUCCGACGAUCCGAGCUGCCAGUCCAGGCCAGCAUUCUGUUUGAGUUGCAGCUCUUCUUCUGCCAGCUCACCGCACUCUUCGUCCACUACAUCAACAUCUACAAGACAGUGUGGUGGUAUCCACCUUCCCACAACAGAGGAUUGAGCAUCA
B22: chr9:125307754:125307855:+|CDS|ENSG00000165219|unk|total|mutant (ssRNA)
RNA: B10 RNA with U75C, A76C, U83C, A84C

Where a chain is given by its changes, count along the chain named. Some of the results follow.

This assay deals with T1, UNK ZnF1-6 (called full-length). Description: nsRBNS (natural sequence RNA bind-n-seq); RBNS binding buffer (assumed for nsRBNS): 25 mM Tris pH 7.5, 150 mM KCl, 3 mM MgCl2, 0.01% Triton X-100, 500 ug/ml BSA, 20 U/ml SUPERase-In, 4 C; UNK is unkempt and MSI1 is Musashi-1; names of the RNAs are library labels; protein concentration not given here; high values mean tight binding.
Take B1: the binding signal is 0.508 enrichment R.
B2 showed a binding signal of 0.79 enrichment R.
In turn, B3 returned a binding signal of 0.977 enrichment R.
As for B4, the binding signal is 0.697 enrichment R.
The molecule B5 showed a binding signal of 0.622 enrichment R.
On to B6, for which the binding signal is 0.81 enrichment R.
For B7, the binding signal was 0.69 enrichment R.
B8 returned a binding signal of 0.381 enrichment R.
Under B9 stands 0.818 enrichment R; under B10, 0.755 enrichment R; under B11, 1.27 enrichment R.
As for B12, the binding signal was found to be 0.651 enrichment R.
Molecule B13 showed a binding signal of 0.753 enrichment R.
B14: the binding signal was 0.508 enrichment R.
As to B15, the binding signal was found to be 0.826 enrichment R.
B16 gave a binding signal of 1.01 enrichment R.
B17 displayed a binding signal of 0.57 enrichment R.
Molecule B18 had a binding signal of 0.982 enrichment R.
Regarding B19, the binding signal is 0.555 enrichment R.
The molecule B20 showed a binding signal of 0.711 enrichment R.
For B21, the binding signal stood at 0.524 enrichment R.
Under B22 stands 0.573 enrichment R.

For the origin of these results see publication PMC12136788.
